The full ranking holds about 110,000 compounds; the median of “z-score” is about -0.1, and the highest 2% start at about 2. This is one part of the list. Active and inactive are the calls of the source.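 Rule for the calls: active = z-score in the third read window above 3 or below -3; inactive = the rest.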

This test has as its target Metabotropic glutamate receptor 8 (Rattus norvegicus) (UniProt P70579). Kind of test: rat mGluR8 modulators via GIRK flux, primary screen, cell-based, thallium flux, HTS (AID 488969). Particulars: HEK293 rat mGluR8, GIRK (G protein-gated inwardly rectifying potassium channel) thallium flux, FluoZin2; at 10 µM; stronger effect = higher value; submaximal glutamate (EC20) added with thallium.
Chain of UniProt P70579 (P70579 whole entry, looked up): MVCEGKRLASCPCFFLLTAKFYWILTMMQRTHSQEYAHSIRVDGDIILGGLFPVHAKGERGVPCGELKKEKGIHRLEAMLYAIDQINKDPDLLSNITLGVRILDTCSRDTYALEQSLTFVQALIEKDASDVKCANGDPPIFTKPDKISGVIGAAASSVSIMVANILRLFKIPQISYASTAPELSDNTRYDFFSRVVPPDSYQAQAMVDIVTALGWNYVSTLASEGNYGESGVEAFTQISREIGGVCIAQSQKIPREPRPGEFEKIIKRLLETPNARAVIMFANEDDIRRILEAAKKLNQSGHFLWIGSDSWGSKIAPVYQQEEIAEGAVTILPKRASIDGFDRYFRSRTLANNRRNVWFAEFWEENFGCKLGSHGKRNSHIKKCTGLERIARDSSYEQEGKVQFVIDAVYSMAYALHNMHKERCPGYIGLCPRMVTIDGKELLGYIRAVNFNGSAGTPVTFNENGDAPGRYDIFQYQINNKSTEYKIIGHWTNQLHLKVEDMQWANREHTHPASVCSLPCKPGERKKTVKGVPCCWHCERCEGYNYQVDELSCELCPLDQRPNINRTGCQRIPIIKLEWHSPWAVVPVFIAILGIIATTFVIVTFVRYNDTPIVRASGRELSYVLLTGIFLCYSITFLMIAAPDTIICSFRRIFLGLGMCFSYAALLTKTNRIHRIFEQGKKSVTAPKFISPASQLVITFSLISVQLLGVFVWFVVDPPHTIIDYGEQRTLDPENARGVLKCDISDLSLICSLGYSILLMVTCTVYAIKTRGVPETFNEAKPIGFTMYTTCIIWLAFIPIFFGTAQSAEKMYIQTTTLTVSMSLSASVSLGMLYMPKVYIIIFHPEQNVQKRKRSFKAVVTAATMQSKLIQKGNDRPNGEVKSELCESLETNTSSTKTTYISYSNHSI
Compound `COC(=O)c1ccc(C(=O)OCCCc2nc3ccc(N)cc3[nH]2)cc1` gave a z-score of -0.207.

`CCOC(=O)c1c(NC(=O)CC)sc(C(C)=O)c1C` displayed a z-score of -0.51.

`Cc1cc(OCC(=O)NCCCN(C)C)cc(C)c1Br` gave a z-score of 1.86.

`CC(C)C(=O)NC(=S)Nc1ccc(S(=O)(=O)N(C)C)cc1`: the z-score was 1.04.

As for `CCOc1cccc(-c2nn(-c3ccccc3)cc2/C=C(/C#N)C(=O)NCCCn2ccnc2)c1`, the z-score is -0.425.

In the case of `O=C(Nc1ccccc1N1CCOCC1)c1cc(-c2ccco2)nc2ccccc12`, the z-score came to 0.138.

Compound `Cc1ccc(S(=O)(=O)c2ccccc2)cc1S(=O)(=O)N1CCOCC1` gave a z-score of 0.0214.

For the compound `Nc1nc(CSc2nc3ccccc3[nH]2)cs1`, the z-score came to 1.15.

On to `CCCSc1nnc(NC(=O)Nc2ccccc2)s1`, for which the z-score is -0.0887.

Consider `CCOC(=O)c1cc(C(C)=O)c(=O)n(C)c1N`, for which the z-score was -0.198.

On to `CCc1cc(C(N)=O)c(NC(=O)c2ccc(OC)cc2)s1`, for which the z-score is active: 3.98.

`COc1ccc(C(=NNc2ccccc2C(=O)O)c2ccc(OC)cc2)cc1` displayed a z-score of 0.0696.

`Cc1c(-n2cc(C(=O)c3cc(Br)ccc3O)cc(C#N)c2=O)c(=O)n(-c2ccccc2)n1C` had a z-score of -0.189.

In turn, `CCCOc1ccc(Cc2nn3c(=O)/c(=C/c4ccco4)sc3nc2=O)cc1` yielded a z-score of 0.00141.

For `O=C(CN1C(=O)CCC1=O)Nc1nc2c(F)cc(F)cc2s1`, the z-score turned out to be 0.55.

As to `Cc1cc(C)nc(NS(=O)(=O)c2ccc(NC(=O)NC3CCCCC3)cc2)n1`, the z-score amounted to 0.591.

In the case of `CCOC(=O)Cc1nnc(Nc2cccc(C)c2)c2ccccc12`, the z-score is -0.988.

Consider `COCc1cc(C)nc(OCC(=O)N/N=C/c2cc(C)n(-c3c(C)cccc3C)c2C)c1C#N`, for which the z-score was -0.334.

In the case of `C=CCNC(=S)NNc1nc2c(c(=O)[nH]1)C1(CCCC1)Cc1ccccc1-2`, the z-score was -0.327.

For the compound `Cc1csc(NC(=O)CNC(=O)OCc2ccccc2)n1`, the z-score turned out to be 0.00319.

`CSc1nc(Cl)cc(N(CCO)CCO)n1` had a z-score of -0.271.

The compound `O=C(CCN1C(=O)COc2ccccc21)NCCCN1CCN(c2ccc(F)cc2)CC1` returned a z-score of 0.011.

As for `O=C(N/N=C/c1ccc(O)cc1)c1[nH]c2ccc(Br)cc2c1-c1ccccc1`, the z-score is -0.0753.

In turn, `CCn1c(C(=O)N2CCCC(C(=O)NCCCc3ccccc3)C2)cc2sccc21` (stereo unspecified) gave a z-score of -1.38.

Compound `COCCNCCCCOc1c(Cl)cc(C)cc1Br` gave a z-score of 0.567.

`CN=C1SC(CC(=O)Nc2cc(Cl)ccc2Cl)C(=O)N1C` (stereo unspecified) showed a z-score of -0.317.

The compound `CCOC(=O)CSc1nc2ccccc2n1C(=O)OCC` had a z-score of -0.737.

`Cc1nnc(SCc2cnc(-c3ccccc3)o2)[nH]c1=O` had a z-score of -1.77.

`CCOC(=O)/C(C#N)=C/c1ccc(OCC(=O)Nc2cc(C)ccc2C)c(OC)c1`: the z-score was determined as 0.0362.

`CCOc1ncccc1C(=O)OCC(=O)c1ccc(Cl)s1` came in with a z-score of -0.0644.

Turning to `CCCn1c(-c2ccccc2)nc2c(=O)n(C)c(=O)[nH]c21`, the z-score was -0.967.

On to `CC(O)C1C(=O)OC2(C)CC(C)(C)NC(=S)N12` (stereo unspecified), for which the z-score turned out to be 0.89.

`COc1ccc(NC(=O)CN2CCC(NC(=O)C3CCCCC3)CC2)cc1` came in with a z-score of -0.333.

As to `O=C(NCCNc1ccc([N+](=O)[O-])cc1C(F)(F)F)c1ccccc1F`, the z-score is -0.453.

For the compound `O=C(CSc1nc2ccccc2c(=O)n1NC(=O)Cc1ccccc1)NCc1ccccc1Cl`, the z-score was -0.256.

`COc1cc(CNn2nnnc2N)cc(Br)c1OCc1c(Cl)cccc1Cl` registered a z-score of 0.0416.

`Cc1cc(NC(=O)c2cnn3cccnc23)nn1CC(=O)Nc1cccnc1` yielded a z-score of -0.112.

`Cc1cc(O)ccc1NC(=O)CCN1C(=O)c2ccc([N+](=O)[O-])cc2C1=O` showed a z-score of -0.173.

`CC1CCN(S(=O)(=O)c2ccc(C(=O)OCc3ccc4c(c3)OCO4)cc2)CC1`: the z-score is -0.112.

`Cc1sc2nc(CN3CCOCC3)nc(NS(=O)(=O)c3ccc4c(c3)OCCO4)c2c1C` gave a z-score of -0.0249.

Consider `COc1ccc(OC)c(CN(CCCN2CCOCC2)C(=O)Nc2ccccc2)c1`, for which the z-score is 0.201.

Take `CCOc1ccc(-n2c(SCC(=O)Nc3ccc4c(c3)OCCO4)nc3c(c2=O)SCC3)cc1`: the z-score was -0.147.

`COc1ccc(-c2nnc(SCc3ccccc3F)o2)cc1` gave a z-score of 0.199.

`O=C(CSc1c(Cl)cccc1Cl)NC1CCCc2ccccc21` (stereo unspecified): the z-score was 0.313.

In turn, `COc1ccccc1-n1c(-c2cccnc2)n[nH]c1=S` yielded a z-score of -0.406.

Compound `COc1ccc(C2(C(=O)Nc3ccc(C(=O)N4CCOCC4)cc3)CCOCC2)cc1` came in with a z-score of -0.173.

The compound `Cc1ccc2cc(CNC(C)(C)C)c(=O)[nH]c2c1` displayed a z-score of -0.312.

`COc1ccc(/C=N/Nc2ccc([N+](=O)[O-])cc2S(=O)(=O)N2CCN(C)CC2)cc1` showed a z-score of -0.00921.

In the case of `CC(=O)Nc1nc(C)nc(C)c1C(C)=O`, the z-score was 0.0408.

In turn, `Cc1ccc(CNc2ccc(O)cc2)cc1` showed a z-score of -0.175.

Consider `Cc1cnc(C(=O)Nc2ccccc2-c2nnn(CC(=O)NC3CCCC3)n2)cn1`, for which the z-score worked out at 0.0552.

As for `O=C(NC1CC1)c1ccc(F)cc1Cl`, the z-score was -0.142.

The compound `CCCc1cc(C(=O)NCCc2ccc(OC)c(OC)c2)no1` gave a z-score of 0.182.

Take `O=C(CNc1ccc(Oc2ccccc2)cc1)N1CCOCC1`: the z-score was found to be 0.526.

As to `COC(=O)C(C)n1nc(C)n(-c2ccc(C)cc2)c1=O` (stereo unspecified), the z-score is -0.0525.

For `CCOC(=O)N1CCN(C(=O)c2ccccc2-c2ccccc2)CC1`, the z-score is 0.205.

Compound `Cc1cccc(OCc2nnc(SCc3nc4cc(C(F)(F)F)ccc4c(=O)[nH]3)o2)c1` had a z-score of 0.668.

For the compound `COc1cc(-c2nnc(CSc3nnc(Nc4ccc(Oc5ccccc5)cc4)s3)o2)cc(OC)c1OC`, the z-score was 0.138.

Turning to `CC(C)(C)NC(=O)CSc1nc2ccccc2n1-c1ccccc1`, the z-score is -0.594.

Take `Cc1[nH]c(=O)[nH]c(=O)c1S(=O)(=O)N1CCCC(C(=O)N2CCN(c3ccccc3Cl)CC2)C1` (stereo unspecified): the z-score is -0.0397.

As to `CCn1c(SCC(=O)c2cc(C)n(CC3CCCO3)c2C)nc2ccccc21` (stereo unspecified), the z-score was -0.499.

The compound `O=C(Nc1nc2c(s1)CCCC2)c1cccs1` came in with a z-score of 0.315.

The compound `COc1ccc(C2=[N+]([O-])C(C)(C)N(O)C2C)cc1` (stereo unspecified) displayed a z-score of 0.368.

`O=C(CCCN1C(=O)c2ccccc2C1=O)Nc1cccnc1` registered a z-score of 0.11.

In turn, `COC(=O)c1ccccc1NC(=O)Nc1cccs1` showed a z-score of -0.0344.

On to `COC(=O)c1ccccc1OCC(=O)N1CCN(c2ccc(OC)cc2)CC1`, for which the z-score is 0.0991.

The compound `CC(C)OC(=O)CSc1nc(N)c(C#N)c(-c2ccco2)c1C#N` had a z-score of 0.0896.

`Cc1ccc(O)c(C2=NOC(O)(C(F)(F)C(F)F)C2)c1` (stereo unspecified) displayed a z-score of 0.805.

`C=CCn1c(COc2ccc3c(c2)CCCC3)nnc1SCC(=O)Nc1cccc(SC)c1` had a z-score of -0.0125.

On to `CC(NS(=O)(=O)c1ccc(CCC(=O)NCC2CCCO2)cc1)c1ccccc1` (stereo unspecified), for which the z-score was -0.015.

With `CCc1cc2c(=O)[nH]c(N3CCOCC3)nc2s1`, the z-score amounted to 0.05.

As for `O=c1[nH]nc(CNc2ccc(O)cc2)c2ccccc12`, the z-score was -0.137.

As for `COCCNC(=O)CSCc1c(F)cccc1Cl`, the z-score is -0.309.

Compound `NC1=CC(=O)c2cccc3cccc1c23` had a z-score of 0.0608.

With `COc1cc(/C=C/C(=O)N2CCN(CC(O)COc3ccccc3)CC2)cc(OC)c1OC` (stereo unspecified), the z-score was -0.413.

As for `COc1cccc(-c2ccc(=O)n(CC(=O)NCCN3CCOCC3)n2)c1`, the z-score stood at 0.258.

Consider `Cc1ccc(S(=O)(=O)N2CCC(C(=O)N[C@@H](C)C(=O)Nc3ccc4c(c3)OCO4)CC2)cc1`, for which the z-score worked out at 0.0642.

As for `CCCCn1c(-c2ccc([N+](=O)[O-])cc2)n[nH]c1=S`, the z-score is -0.0803.

Turning to `CN1C(=O)/C(=C/c2ccc(-c3ccccc3[N+](=O)[O-])o2)SC1=Nc1ccc(Cl)c(C(=O)O)c1`, the z-score was -0.786.

On to `CC(=O)c1ccc(OCC(C)C)c(Cc2c(O)nc(N)[nH]c2=O)c1`, for which the z-score was -0.204.

For the compound `Cc1cccc(NC(=S)NNC(=O)c2csc3c2CCCC3)c1`, the z-score is active: 14.

As for `COCCN1C(=O)C(CC(=O)Nc2ccccc2)SC1=Nc1ccc(OC)cc1` (stereo unspecified), the z-score is -0.209.

`CC(=O)Nc1ccc(S(=O)(=O)NCc2cn3c(C)csc3n2)cc1` yielded a z-score of 0.309.

In turn, `COc1ccccc1OCC(=O)NCCc1nc2ccccc2[nH]1` registered a z-score of -0.987.

For the compound `CCOc1ccc2nc(SCC(=O)N3c4ccccc4Sc4ccccc43)c(C#N)cc2c1`, the z-score is -0.218.

On to `COc1ccc(CNC(=O)CCSCc2cccc(Cl)c2)c(OC)c1`, for which the z-score is -0.242.

For `Cc1ccc2nsnc2c1NC(=S)NC(=O)c1ccco1`, the z-score is active: 6.75.

In turn, `O=C(CSc1ncnc2c1oc1ccccc12)c1cccs1` came in with a z-score of 0.82.

For the compound `C=CCN(CC=C)Cc1c(O)ccc2c1oc(=O)c1ccccc12`, the z-score was -0.229.

Turning to `Cc1nc(SCC(=O)NCCc2ccccc2)c2oc3ccccc3c2n1`, the z-score was 0.151.

In the case of `O=C(c1ccco1)n1nc(-c2ccc(Cl)cc2)nc1NCc1ccco1`, the z-score was determined as 0.0695.

`COCCn1c(=S)[nH]c2cc(C(=O)N3CCC(C(N)=O)(N4CCCCC4)CC3)ccc2c1=O` registered a z-score of -0.286.

In turn, `O=C(CN1C(=O)COc2ccccc21)NCCN1CCc2ccccc2C1` returned a z-score of -0.0186.

As to `Cc1scc(C(=O)Nn2cnnc2)c1-c1ccccc1`, the z-score is -0.343.

`Cc1cccc(C(=O)Nc2cc(C)ccc2NC(=O)COc2ccccc2)c1` showed a z-score of -0.561.

`CCOC(=O)c1ccc(NC(=O)CSc2nnc(COc3ccccc3)n2C)cc1` showed a z-score of -0.177.

With `Cc1ccccc1-c1nc(CS(=O)(=O)CC(=O)NCc2ccccc2)c(C)o1`, the z-score was -0.0658.

For the compound `COc1ccccc1C(=O)N1CCNC(=O)C1CC(=O)Nc1ccc(Cl)cc1` (stereo unspecified), the z-score was -0.0129.

With `CCOC(=O)c1c(C2CC2)csc1NC(C)=O`, the z-score was -0.0297.

The compound `COc1ccc(CCN=C(N)NS(=O)(=O)c2ccc(C)cc2)cc1` displayed a z-score of -0.247.

In the case of `Cc1cc2c(cc(C(=O)OCC(=O)NCc3cccs3)n2C(C)C)o1`, the z-score was -0.794.

`CC(=O)Nc1nc2ccccc2n1CCOc1ccccc1` returned a z-score of 0.0425.

Compound `CCc1nnc(NC(=O)c2ccc(S(=O)(=O)N3CCOCC3)cc2)s1` registered a z-score of -0.164.

`O=C(c1cccc2cccc(O)c12)N1CCCCC1` registered a z-score of -0.615.

With `Cc1ccc(-n2c(-c3cccc(C)c3)n[nH]c2=S)cc1`, the z-score amounted to 0.482.

For the compound `O=C(NC1CCCCC1)c1ccc(COCC(F)(F)F)o1`, the z-score was -1.49.

`O=S(=O)(c1cnc(Cl)c(Br)c1)N1CCCCCC1` showed a z-score of -0.292.

For the compound `O=C(O)CC(C(=O)OC1CCCCC1)N1CCOCC1` (stereo unspecified), the z-score was found to be 0.122.

`COC(=O)c1ccc(C(=O)OC)c(NC(=O)COC(=O)C2CC2C)c1` (stereo unspecified) had a z-score of -0.245.

As to `CCn1c(=N)n(CC(=O)C(C)(C)C)c2ccccc21`, the z-score was found to be 0.023.

`COc1ccc(C(=O)NC(C(=O)NCC(=O)Nc2c(C)cccc2C)C(C)C)cc1` (stereo unspecified): the z-score was -0.0633.

Source of the values: PubChem BioAssay AID488969 (Vanderbilt High Throughput Screening Facility, 2010).
